From the supplement of paper PMC11417369
The list shows a part of the results.

The sequences below were run on PfHDP1 homeodomain (GST-tagged) (assay: gcPBM binding intensity (ln(normalized median fluorescence intensity)); higher = stronger DNA binding).
Summary of the method: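 Each value is the highest Masliner-normalised natural-log median intensity across replicate spots of either orientation of a probe. The probes were primer-extended double-stranded 36-bp intergenic genomic sequences on an Agilent 4 × 180k array, alongside negative controls, exposed for 1 h to GST-tagged P. falciparum DNA-binding domains expressed in E. coli. Bound protein was picked up with Alexa488 anti-GST antibody and scanned at 488 nm.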

Row | Sequence | gcPBM binding intensity (ln)
1 | GAAAAATTAAAATGTGGTACAATAAAATTTTATTCA [XGTACX_site5030] | 6.08
2 | ATATTTATACTATACACACCCAATTTAAAAAAAAAT [CACACA_site1163] | 7.11
3 | AATTTATTAATACAAAGTACTTTCTAATATGAATTT [XGTACX_site8013] | 6.46
4 | AAAAAAAAAAAAAAAACACACAATTGAATTATTAAG [CACACA_site2864] | 6.4
5 | TTTTATTATTAAACATGTACCCATATTATTGTTATG [XGTACX_site5563] | 6.65
6 | TTCTTAAAAAATCAAACACACATATATATATACATA [CACACA_site2296] | 6.49
7 | ATAAATAGAATAAAATGTACATGTAATACATATATA [XGTACX_site5475] | 6.38
8 | GTTTAGATAAAAGGGCGTACATCTATTTTTGACTAA [XGTACX_site7170] | 6.15
9 | TTTATAAAATATCTTTCACACATTACTATGTATTAT [CACACA_site5148] | 6.35
10 | ATAAAAGTTTAATATTGTACGAACATGCGTTTCTAA [XGTACX_site1487] | 5.98
11 | AAAAAAAAAAAATATATATATATATATATAATATTT [GTGCAC_negctrl_site678] | 6.76
12 | GAATAAATAAAAATATGTACATAAATATATATATAT [XGTACX_site8858] | 8.84
13 | AAAAAAAAATAAAAAAGTACAGGTAAATATATATAT [XGTACX_site5812] | 7.53
14 | ATACTTTAAAATAATACACACATGGAAAATAAAATT [CACACA_site697] | 6.95
15 | AAGACAAATATGTATTGTACGAACGCTTTTTAATTA [XGTACX_site1961] | 6.39
16 | AGAATTATATCATGGTGTACTTATTTGTTTATTTCT [XGTACX_site5795] | 6.18
17 | AAAAAAATATATTCCTAATTTATGATTAAAAGGAAT [CACACA_negctrl_site751] | 5.83
18 | ATAAATTAAACAAACACACACGTTCTTTTATTTACT [CACACA_site4556] | 6.53
19 | TTTTTTTTTGGGTGTACACATGAATATATATTTTTT [CACACA_site5254] | 7.17
20 | AAAACAAAAAAATTTTGTACGAAACAATACTGTAAG [XGTACX_site7992] | 6.18
21 | TATATATATTGTTATTGTACACAAATATAGGAAATA [XGTACX_site7110] | 6.74
22 | AAATTTGGTGAAGGATGTACTTTACCTAATACTTGT [XGTACX_site4825] | 6.06

Row | Sequence | gcPBM binding intensity (ln)
23 | AGGAGGATAGTTCACAGTACCCAGTAACTCTACGAG [XGTACX_site2008] | 6.14
24 | AAAATTAATGTTGGTTGTACAAAAATTAAATATGGT [XGTACX_site66] | 6.85
25 | GTACAAAGGACTATACATAGAAAAATATATATATAT [XGTACX_negctrl_site164] | 8.82
26 | TTTATAATTCCATAATGTACAAATAAAATAAAAAAT [XGTACX_site663] | 6.57
27 | TTATTTTATTTTTATACACACATGTTTTAATGTTCA [CACACA_site249] | 6.98
28 | AATAAAAATAGGAAATGTACACATATATATATATAT [XGTACX_site1853] | 9.35
29 | AAAGATTTAATCTATACATGCAAATATATAGAAAAG [TGCATGCA_site373] | 6.55
30 | AAAAGATATTTGAATATACACACGATTTAAATTTAA [CACACA_site3865] | 6.46
31 | TATATATACACACACACATGCATGCCGATATATATA [TGCATGCA_site29] | 7.28
32 | GAACAAAATTTTATATGTACATAATATTTATATATA [XGTACX_site3667] | 6.76
33 | AGATGCCAAGTATAAAGTACATATCAAAATGTATAT [XGTACX_site456] | 6.17
34 | ATATATTCTATATATACATGCATATATATTATATGT [TGCATGCA_site185] | 6.71
35 | ATGCAACTATATATATATATTATATGTATGAATAAT [XGTACX_negctrl_site434] | 6.95
36 | TGAATAAATATGCAGCGTACATAATCCTCTTAAAAT [XGTACX_site8462] | 6.12
37 | GTTAAATGAAAATATGTACACACTTGAAAATTTTTA [CACACA_site2924] | 6.48
38 | TTAATAGAAATACGTGCACACTAAAGGGAAAACAAT [CACACA_site4923] | 9.36
39 | ACAAGTATTAATTACACACTCAAAAAGAAAAAACAA [CACACA_site2281] | 6.49
40 | TATATTCAAAATGGTACACACAATATTTAATTGTGC [CACACA_site2631] | 6.2
41 | ACATTTTCTTATAAATGTACATATATATTATTATAT [XGTACX_site4404] | 6.33
42 | TGACATATAAAATATTCACACACAAGTTATAGTTCT [CACACA_site9209] | 6.26
43 | AAAGTATATAGGATACGTACATACATAAATAAATAA [XGTACX_site8216] | 6.66
44 | GTACAAAATTGACAAGTGCAAAAATTAAAAGCAAGA [GTGCAC_site9838] | 9.19
